In the supplement of paper PMC10126150 one finds switch fluorescence ratio data, which are given here for 120 sequences.

The test system of the data set is ATP. In words: switch fluorescence ratio, 500 uM ATP over buffer (Cy3 cluster intensity, sum of 5 cycles each) (fold (ratio)); higher = stronger signal-on switching upon ATP binding; sequences stand for … in TCGTCGGCAGCGTCAGATGTGTATAAGAGACAGTTTTTTTTTTTTTTTTTTTTTTTTT…TC. The following applies: aptamer strand: ATP DNA aptamer (quencher-CACCTGGGGGAGTATTGCGGAGGAAGG + anchor), 100 nM annealed; ATP concentration: 500 uM; one replicate. An outline of the steps:
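Clusters with intensities outside 100-1000 RFU were excluded. The remaining Cy3-labelled switching-strand clusters on a modified Illumina MiSeq flow-cell had been annealed to 100 nM quencher-labelled ATP aptamer and imaged in selection buffer, then after 15 min with 500 uM ATP at 22 °C, for five cycles separated by NaOH stripping and re-annealing. The fluorescence ratio, averaged per switch-domain sequence, is each cluster's summed target-cycle Cy3 intensity over its summed buffer-cycle Cy3 intensity.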

Values marked as one replicate rest on one cluster of the flow cell; about a third of the high ones do not repeat.
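Note: ATP exposure 15 min at 22 °C before imaging.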

As to GATACGAGAG, the switch fluorescence ratio was determined as 1.06.

Regarding CAAGAAGGAT, the switch fluorescence ratio was 0.978.

With TTTTCTCCCT, the switch fluorescence ratio was found to be 1.05.

On to GCCGAGGACA, for which the switch fluorescence ratio was 1.05.

With TGGGCTTGGT, the switch fluorescence ratio was determined as 0.983.

For the sequence ACAGGGCTT, the switch fluorescence ratio was found to be 1.02.

In the case of GGTATCAATA, the switch fluorescence ratio was 1.04.

Take TCTTGGAGTA: the switch fluorescence ratio came to 1.03.

As to TCGTAGCTCT, the switch fluorescence ratio was 1.06.

AAGGGTACGG: the switch fluorescence ratio stood at 1.04.

Regarding AAGCTTAAAA, the switch fluorescence ratio was 0.965.

As to TTGTATCCGC, the switch fluorescence ratio was 1.

Take CCCTAATCGT: the switch fluorescence ratio was 0.957.

Consider TTAAGCCACA, for which the switch fluorescence ratio came out at 1.05.

TGTATTGCCT: the switch fluorescence ratio amounted to 1.01.

In the case of ATTTACAGTG, the switch fluorescence ratio turned out to be 1.11.

Turning to TCATGGCTCA, the switch fluorescence ratio worked out at 0.975.

With ATTTAATTTG, the switch fluorescence ratio turned out to be 1.01.

CCAGGTACCC: the switch fluorescence ratio was determined as 1.01.

GACGGGACAG: the switch fluorescence ratio was found to be 1.08.

Consider TAGGGGGGG, for which the switch fluorescence ratio turned out to be 1.04.

On to AGCGCCCCGT, for which the switch fluorescence ratio came to 0.998.

Consider GTTAGAGCAG, for which the switch fluorescence ratio amounted to 1.01.

GATACAGCCC: the switch fluorescence ratio was found to be 1.06.

With TTCTCCATTG, the switch fluorescence ratio is 0.985.

Turning to TGCGGGCGG, the switch fluorescence ratio amounted to 1.01.

Turning to AGGGCTTACG, the switch fluorescence ratio turned out to be 1.02.

On to GAACAGAGGC, for which the switch fluorescence ratio came to 1.02.

For GGTATTTCGA, the switch fluorescence ratio came out at 0.995.

With GGTCATGGCC, the switch fluorescence ratio is 1.03.

On to ACGCCTGTAG, for which the switch fluorescence ratio is 1.02.

On to TCAATCGTCA, for which the switch fluorescence ratio was found to be 0.999.

As to CGTTTTACTA, the switch fluorescence ratio amounted to 1.05.

In the case of GTAGGTACCT, the switch fluorescence ratio was found to be 1.07.

TTCTCTCTTA: the switch fluorescence ratio was 0.992.

As to TGACGGTGAA, the switch fluorescence ratio worked out at 0.964.

With ACGCCTGTTT, the switch fluorescence ratio was determined as 1.04.

Take GTTAGTATAC: the switch fluorescence ratio was determined as 0.998.

As for TTAGACGGAA, the switch fluorescence ratio stood at 1.01.

Turning to CCCGGCCAAA, the switch fluorescence ratio turned out to be 1.15.

Take TAAAGAGGA: the switch fluorescence ratio was determined as 0.927.

With GGGTTGCCTA, the switch fluorescence ratio worked out at 1.01.

Take ACACATAAG: the switch fluorescence ratio was determined as 1.02.

In the case of AGCGGTTGGC, the switch fluorescence ratio was found to be 0.991.

In the case of GGATAGGT, the switch fluorescence ratio worked out at 1.01.

As to CGTCAACGAG, the switch fluorescence ratio came out at 1.02.

On to GGCTTGTAAT, for which the switch fluorescence ratio stood at 0.96.

On to CCTTTATTTG, for which the switch fluorescence ratio is 0.979.

Consider TATGGATCCC, for which the switch fluorescence ratio worked out at 0.973.

With AGGAATAATT, the switch fluorescence ratio came out at 1.06.

For CTATTTACGT, the switch fluorescence ratio stood at 1.06.

With AGTTAACATT, the switch fluorescence ratio was 0.962.

Consider TTTTGCCTGT, for which the switch fluorescence ratio came out at 1.02.

For the sequence AGCAGATTCC, the switch fluorescence ratio came out at 1.09.

On to ACGCTGAATA, for which the switch fluorescence ratio amounted to 1.21.

Regarding AGCTCAGGAG, the switch fluorescence ratio was 1.05.

For the sequence AATTTTTTAG, the switch fluorescence ratio turned out to be 0.928.

With CATGCGGTCA, the switch fluorescence ratio is 0.96.

With TCAATGTTAT, the switch fluorescence ratio amounted to 1.01.

As to CAGTACGATT, the switch fluorescence ratio was 1.04.

Turning to TTCGAAGGTC, the switch fluorescence ratio is 0.992.

For the sequence CTTTAACTGA, the switch fluorescence ratio amounted to 1.02.

For the sequence GGTGACTTAC, the switch fluorescence ratio was 1.21.

Turning to TGCTACTTCT, the switch fluorescence ratio came out at 1.01.

Turning to TCGATTGTTA, the switch fluorescence ratio came to 0.998.

With CGGTCACTTA, the switch fluorescence ratio came to 1.04.

As to AATGTTCGGC, the switch fluorescence ratio worked out at 1.11.

Regarding TTTACTGGTC, the switch fluorescence ratio stood at 1.02.

With ATACAGGATG, the switch fluorescence ratio stood at 1.01.

For GAGATACG, the switch fluorescence ratio is 1.02.

Turning to AGCTTATCGC, the switch fluorescence ratio came out at 1.17.

Consider AACGTTGCT, for which the switch fluorescence ratio was 0.973.

On to ATCGGTCTGG, for which the switch fluorescence ratio turned out to be 0.999.

With GCTCTATATG, the switch fluorescence ratio was determined as 1.

With ATCTGCTCAC, the switch fluorescence ratio was found to be 1.24.

As for TAGCTGAGCC, the switch fluorescence ratio was 1.02.

As to GTAAGGACCG, the switch fluorescence ratio worked out at 1.01.

Consider GTTTCGGGCG, for which the switch fluorescence ratio was 1.07.

In the case of CTCGGTGCGC, the switch fluorescence ratio was determined as 1.01.

With CTTCTGTAAG, the switch fluorescence ratio turned out to be 1.04.

Take AGGCAGACG: the switch fluorescence ratio was 1.07.

For the sequence TATTGGATCA, the switch fluorescence ratio turned out to be 0.975.

Regarding GGGGACCCAC, the switch fluorescence ratio stood at 0.971.

Turning to GGGCGTGTA, the switch fluorescence ratio was determined as 0.976.

With AGCTACTG, the switch fluorescence ratio came to 1.04.

Consider TAAACGTTTT, for which the switch fluorescence ratio turned out to be 1.27.

As for TCGCAGAAGC, the switch fluorescence ratio was 1.16.

In the case of TGATACTATA, the switch fluorescence ratio came to 0.999.

In the case of TACGATACCA, the switch fluorescence ratio is 1.39.

Turning to TCGTCCAGAT, the switch fluorescence ratio was 1.04.

In the case of CGGACGGCAT, the switch fluorescence ratio is 1.45.

With CTCATTATGT, the switch fluorescence ratio came to 0.952.

Regarding CTATGCAAGC, the switch fluorescence ratio was determined as 2.43.

As to GCTAATCGAC, the switch fluorescence ratio came to 1.17.

In the case of AAATGTGTGT, the switch fluorescence ratio came out at 1.01.

CTCCTACTAG: the switch fluorescence ratio worked out at 1.09.

As to CCATTGGGAA, the switch fluorescence ratio turned out to be 1.02.

In the case of GGCCTAACCG, the switch fluorescence ratio was 1.09.

For TACACGTGAA, the switch fluorescence ratio is 1.06.

With GGGGCAGGGC, the switch fluorescence ratio came to 0.971.

For the sequence TGTTAATCGG, the switch fluorescence ratio stood at 0.983.

Take GGCAGTACAT: the switch fluorescence ratio was found to be 1.05.

As to ATAAGGACGC, the switch fluorescence ratio came to 1.07.

Turning to GACGCGCAAA, the switch fluorescence ratio amounted to 1.19.

Take CAGCGCGATC: the switch fluorescence ratio is 3.49.

With GCAACCTGGG, the switch fluorescence ratio amounted to 1.04.

On to TCTAGCTGG, for which the switch fluorescence ratio came to 1.01.

Regarding AAAGGACGCA, the switch fluorescence ratio came out at 1.26.

For ACGATATCTT, the switch fluorescence ratio was 1.11.

With TCTGTGATG, the switch fluorescence ratio was determined as 1.22.

As for GAAGGTCACA, the switch fluorescence ratio was determined as 1.05.

For the sequence GAGGCGGT, the switch fluorescence ratio amounted to 1.01.

On to CGTAAGATTC, for which the switch fluorescence ratio amounted to 0.996.

For the sequence CGATAATGCC, the switch fluorescence ratio turned out to be 1.04.

On to GTATGTTGTA, for which the switch fluorescence ratio worked out at 1.02.

Take CGGATTGGGC: the switch fluorescence ratio was determined as 0.932.

With ATAAGCTAA, the switch fluorescence ratio is 0.963.

Consider TCTAAGTTCT, for which the switch fluorescence ratio is 0.979.

GAGAGAGCC: the switch fluorescence ratio is 0.961.

As for AGGGGTCTCG, the switch fluorescence ratio came out at 0.964.
